According to PubChem BioAssay AID1508623 (National Center for Advancing Translational Sciences (NCATS), 2021):
Among all 48,000 compounds or so, about 450 (0.94%) were called active. Inconclusive results (about 19%) are left out. The call rests on the fitted dose curve; in most records, active means well fitted inhibition curve with a large enough effect; inconclusive means small, poorly fitted or top-dose-only effect; inactive means no such curve, though single readings can be large or run the other way. The list shows a part of the results.

Assay: Primary qHTS for Identification of Small Molecule Inhibitors of Huntingtin Promoter Activity; further: nearly all actives have a fitted effect of over 50% in size
Settings: HEK293 HTT promoter firefly luciferase reporter (activity 0% = vehicle and -100% = no light), 24 h; series mostly up to 57.5 µM; activity change, negative = inhibition: at the top concentration
In short: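 HEK293 Fluc reporter, 2,500 cells/well, 24 h pre-culture; cpds up to 57.5 uM final, 24 h 37 degrees C; Dual-Glo, 10 min RT; normalized vehicle = 0%, zero RLU = -100%.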

Activity change, negative = inhibition, inactive:
CC(C)c1cnc2c(c1SCC(=O)NCc1ccccc1)c(=O)n(C)c(=O)n2C -8.29%
CN(Cc1ccccc1)C(=O)CSc1nc2ccccc2n1Cc1ccccc1F -16.4%
Cc1ccccc1NC(=O)CSc1nc(=O)n(CCN2CCOCC2)c2c1CCC2 -9.74%
Cc1sc2c(c1C)c(=O)n(-c1cccc(C(F)(F)F)c1)c(=O)n2Cc1ccc(F)cc1 -16.3%
Cc1ccc(-c2nc3ccc(Cl)cn3c2Nc2ccccc2C)s1 37.2%
COc1ccccc1Cc1nc2ccccc2nc1SCC(=O)Nc1cccc(Cl)c1C -0.887%
COC(=O)c1ccc(NC(=O)CCc2c(C)nc3c(c2C)c(=O)n(C)c(=O)n3C)cc1 -9.5%
COc1cc(NC(=O)CSC2=Nc3ccccc3N=C(c3ccc(F)cc3)C2)cc(OC)c1 -5.33%
COc1ccc(CNC(=O)c2cnc3cc(C)ccn3c2=O)cc1 1.43%
CCOCN(C(=O)CSc1nc2ccccc2[nH]1)c1c(C)cccc1CC -31.1%
CCCCN(CC)C(=O)Cn1nc(C)c2c(C)n(-c3ccccc3)nc2c1=O -13.8%
O=C(c1ccccc1)c1ccc2nc(Nc3ccccc3Cl)c3nncn3c2c1 -15.2%
CCOC(=O)c1c(C)oc2nc(C)nc(NCc3cccc(OC)c3)c12 -12.3%
C[C@H](CS)C(=O)N1CCC[C@H]1C(=O)O 6.49%
CCOC(=O)c1cc(OC(=O)c2ccc(OC)c(OC)c2)n(-c2ccccc2)n1 10.5%
COc1ccccc1CNC(=O)CCCn1c(=O)c2ccccc2n(Cc2ccccc2F)c1=O 6.47%
Cc1ccc(N2CC(C(=O)Nc3ccc(Cl)cc3Cl)CC2=O)cc1 (stereo not drawn) -5.14%
COc1ccccc1NC(=O)CCNS(=O)(=O)c1ccc2c(c1)CCCC(=O)N2 -12.7%
CN(Cc1cc(Br)cc(Br)c1N)C1CCCCC1
CCc1ccc(-c2csc(-c3cc4cc(Br)ccc4oc3=O)n2)cc1 -13.2%
COc1ccc(C(=O)Nc2nnc(S(=O)(=O)N3CCOCC3)s2)cc1 -6.66%
Cc1nn(C(C)C(=O)NCc2cccc(F)c2)c(=O)c2c1sc1ccccc12 (stereo not drawn) -3.44%
CCN(CC)C(=O)Cn1cc(SCC(=O)Nc2ccc(C)cc2)c2ccccc21 -10.9%
COc1ccc(C)cc1NC(=O)C(NS(=O)(=O)c1cccc2nsnc12)c1ccccc1 (stereo not drawn) -20.8%
CCOC(=O)N1CCc2c(sc3c2c(=O)n(-c2ccc(Cl)cc2)c(=O)n3CC(=O)Nc2ccccc2)C1 -28.4%
CCn1c2ccc(F)cc2c2nnc(SCCN3CCCCC3)nc21 0.437%
Cc1cccc(CNC(=O)C2CCN(c3nc4ccc(Cl)cc4[nH]3)CC2)c1 -0.896%
Cn1cnc2c(F)c(Nc3ccc(Br)cc3Cl)c(C(=O)NOCCO)cc21 2.46%
Cc1nc2c3ccccc3nc(NNC(=O)CCC(=O)N3CCN(c4ccccc4F)CC3)n2n1 -51%
COc1ccc(C2Nc3ccccc3-c3nnc(SC)nc3O2)cc1C (stereo not drawn) -8.45%
COc1cc(C2c3c(oc4ccc(C)cc4c3=O)C(=O)N2Cc2ccc(F)cc2)ccc1O (stereo not drawn) -8.38%
Cc1ccc(C(=O)Nc2ccccc2F)cc1S(=O)(=O)N1CCOCC1 18.3%
Cc1ccc(NC(=O)CCC(=O)N2CCOc3ccccc32)c(Cl)c1 -17%
CC1(C)O[C@@H]2C[C@H]3[C@@H]4C[C@H](F)C5=CC(=O)C=C[C@]5(C)[C@H]4[C@@H](O)C[C@]3(C)[C@]2(C(=O)CO)O1 -3.29%
N#Cc1ccccc1NC(=O)C(=O)NCC(c1ccc2c(c1)OCO2)N1CCN(c2ccccc2)CC1 (stereo not drawn) 4.03%
CCCCN(CC)C(=O)Cn1c(=O)n(-c2ccc(OCC)cc2)c(=O)c2c3c(sc21)CCCC3 -26.2%
Cc1c(C(=O)Nc2ccc(Br)cc2F)sc2ncnc(N(C)C3CCCCC3)c12 -12.2%
CCOC(=O)c1c(C)[nH]c(C)c1S(=O)(=O)NCC(=O)N(C)c1ccc(C)c(C)c1 -18.8%
O=C(Nc1c(C(=O)c2ccccc2)oc2ccccc12)c1cc(=O)c2ccccc2o1 -7.56%
COc1ccc(NC(=O)CSc2nc(-c3ccccc3)nc3cc(=O)[nH]n23)cc1 -12.6%
CSc1ncc(C(=O)Nc2ccccc2C(=O)c2ccccc2)c(C)n1 15.5%
CC(C)NCC(O)COc1cccc2[nH]ccc12 (stereo not drawn) 0.667%
COc1ccc(C(=O)NCc2nnc(SCC(=O)Nc3ccccc3)n2-c2ccc(F)cc2)cc1 -19.8%
CCOc1ccc(CCNC(=O)CN2C(=O)C(CC)Oc3ccccc32)cc1OCC (stereo not drawn) -17.1%
COc1ccc(OC)c(NC(=O)CSc2ccnc(=O)[nH]2)c1 0.0715%
Cn1c(=O)oc2cc(S(=O)(=O)CCC(=O)N3CCN(c4ccccc4)CC3)ccc21 -5.6% [at 11.5 µM]
COc1ccccc1-c1cc(C(=O)Nc2sc3c(c2C#N)CCCC3)no1 1.83%
COc1ccccc1N1CCN(S(=O)(=O)c2c(C)sc3ncn(CC(=O)Nc4cccc(Cl)c4)c(=O)c23)CC1 -9.3%
COC(=O)c1c(-c2ccc(Cl)cc2)noc1N1CCN(c2ccc(OC)cc2)CC1 6.58%
COc1ccc(C2CC(c3c(O)n(C4CCCCC4)c(=O)[nH]c3=O)=Nc3ccccc3S2)cc1 (stereo not drawn) -16.9%
Cc1ccc2c(c1)NC(=O)C(CC(=O)Nc1cc(Cl)ccc1C)O2 (stereo not drawn) -6.68%
CCc1nn2c(=O)cc(COC(=O)CNC(=O)c3ccccc3)nc2s1 -14.4%
COc1cc(OC)c(Nc2cc(C)nc3ncnn23)cc1Cl -2.74%
CCOc1ccc(C(=O)Nc2cccc(NC(=O)c3ccco3)c2)cc1Cl 3.38%
CCN(CC)S(=O)(=O)c1nnc(NC(=O)COc2ccccc2Cl)s1 -10.9%
O=C(COc1ccccc1F)OCc1cc(=O)n2nc(-c3cccs3)sc2n1 -12.6%
COC(=O)c1ccc(NC(C)=O)cc1OC -2.2%
CCC(CC)c1nn2c(=O)cc(COc3ccc(NC(=O)c4ccccc4Cl)cc3)nc2s1 -8.37%
Cc1ccccc1CNC(=O)C1CCN(c2nn3cc(-c4ccc(F)cc4)nc3s2)CC1 9.95%
CC1CCCCN1CCCNC(=O)Cn1ncc2c([nH]c3ccccc32)c1=O (stereo not drawn) 4.33%
Cc1cccc(CNS(=O)(=O)c2ccc3[nH]c(=O)ccc3c2)c1 -6.36%
COc1ccc(Cn2c(=O)[nH]c3cc(C(=O)N4CCN(c5cc(C)ccc5C)CC4)ccc3c2=O)cc1 -27%
COc1ccc(C)cc1NC(=O)c1cc(S(=O)(=O)NC2CCCCCC2)ccc1F -26.4%
CC(C)Cn1c(=O)c2ccccc2n2c(CCC(=O)Nc3cccc(Cl)c3)nnc12 -4.48%
CCOC(=O)c1cnc2cc(-c3ccc(Cl)cc3)nn2c1-c1ccccc1 -20.3%
CC(=O)c1cc(-c2ccccc2)n(CC(=O)NC2CCCCC2)c1C -4.02%
CCOc1ccccc1/C=C/c1onc(C)c1S(=O)(=O)N1CCC(C(=O)N(CC)CC)CC1 -25.1%
OC(CCN1CCCC1)(c1ccccc1)C1CCCCC1 (stereo not drawn) -0.326%
O=C1Nc2c(c(=O)[nH]c(=O)n2-c2ccccc2)C1(NS(=O)(=O)c1ccc(Cl)cc1)C(F)(F)F (stereo not drawn) -11.1%
Cc1ccc(NC(=O)Cn2c(=O)n(CCCCCC(=O)NCc3ccc(F)cc3)c(=O)c3sccc32)cc1C -10.5%
O=C(Cc1ccc(F)cc1)NC1CC(=O)N(c2ccccc2)C1 (stereo not drawn) -15.9%
CCOc1ccc(Cn2nnc3c(=O)[nH]c(C4CCN(C(=O)c5ccccc5)CC4)nc32)cc1 -25.4%
Cc1cc(C)cc(-n2nnc(-c3nc(-c4ccc5c(c4)OCO5)no3)c2C)c1 -8.07%
Cc1ccc(S(=O)(=O)C(CNC(=O)C(=O)NCc2ccc(Cl)cc2)c2cccs2)cc1 (stereo not drawn) -26.3%
CC(=O)c1ccc(NC(=O)c2cn3c4c(ccc(Cl)c4c2=O)OC(C)C3)cc1 (stereo not drawn) -7.61%
CCC(=O)N1c2ccc(S(=O)(=O)N3CCN(c4ccccc4)CC3)cc2CC1C (stereo not drawn) -7.48%
COc1cc2c(=O)n(CCC(=O)NCC3CCCO3)c(=O)n(CC(=O)Nc3ccc(C)cc3)c2cc1OC (stereo not drawn) -3.39%
Nc1ccc2c(c1)CN1C(=O)c3ccccc3C1=N2 -27.4% [at 25.2 µM]
CC(Oc1ccc(F)cc1)C(=O)NCC1(N(C)C)CCCCC1 (stereo not drawn) -14.6%
Cc1c(NC(=O)c2ccc(OC(C)C)cc2)cccc1-c1nc2ncccc2o1 1.87%
Cc1ccc(S(=O)(=O)c2cn(CC(=O)Nc3ccc(C)c(Cl)c3)c3ccc(C)cc3c2=O)cc1 -14.3%
Cc1ccc(CNC(=O)C2CCCN(S(=O)(=O)c3ccc4c(c3)oc(=O)n4C)C2)cc1 (stereo not drawn) -8.08%
CCCS(=O)(=O)Nc1cc(-c2cn3cccc(C)c3n2)ccc1C 17.9%
COc1ccc(-c2cc(C(F)(F)F)c(C#N)c(SCC(=O)Nc3ccc(F)cc3)n2)cc1 -15.6%
COc1ccc(-c2cn3nc(N4CCC(C(=O)NCc5ccccc5F)CC4)sc3n2)cc1 21.3%
CCCNC(=O)c1ccc2c(c1)ncn2-c1ccc(C)cc1C -9.41%
Cn1c(N2CCCCS2(=O)=O)nc(C(=O)NCc2ccc(F)cc2)c(O)c1=O 4.5%
CCCC(O)C(CC)CO (stereo not drawn) 2.39%
CC(CN(C)C)CN1c2ccccc2CCc2ccccc21 (stereo not drawn) -2.92%
COP(=O)(OC)OC(c1ccc(Cl)cc1)P(=O)(OC)OC (stereo not drawn) 6.46%
CN(C)CCNC(=O)c1ccc(-n2c(-c3ccccc3)cc3c2CCCC3)cc1 -5.15%
Cc1nc(-c2ccccc2)sc1-c1ccc(SCC(=O)NCc2ccc(F)cc2)nn1 -0.884%
Cn1c(=O)c2c(SCC(=O)N3CCc4ccccc43)nc(-c3ccccc3Cl)nc2n(C)c1=O 17.3%
Clc1ccc(-c2nc3sccn3c2C=NOCc2ccc(Cl)c(Cl)c2)cc1 -7.22%
CCC(CC)C(=O)NC1CC(=O)N(c2ccc3c(c2)OCCO3)C1 (stereo not drawn) -15.5%
CCOc1ccc(-n2c(SCC(=O)N3CCCC3)nc3c([nH]c4ccccc43)c2=O)cc1 -2.9%
COC(=O)C(Cc1c[nH]c2ccccc12)NC(=O)COc1ccc(Cl)cc1Cl (stereo not drawn) -27.2%
CCOc1ccc(-n2c(CCC(=O)O)ccc2-c2ccc(Br)cc2)cc1 0.497%
